Among the data in PubChem BioAssay AID463173 (ICCB-Longwood Screening Facility, Harvard Medical School, 2010) are survival values, retold here.

Hit rate of the full screen: of about 52,000 compounds, about 1,700 (3.3%) were called active. No stated cut-off is given here; in the data, active means survival mostly below about 52% (no sharp cut-off); inactive means mostly above about 56%. The list shows a part of the results.

The experiment concerns Wild type. The experiment is described as follows: growth inhibition of S. aureus wild type versus tarO mutant, primary screen, teichoic acid synthesis inhibitors, RN4220, OD600 (AID 463173). The following applies: S. aureus RN4220 wild type/DeltatarO growth, OD600, 18 h, hits give low values, screened at 18.75 µg/mL (by protocol).
Turning to `O=C(Nc1ccc2c(c1)Cc1ccccc1-2)c1ccc(Br)o1`, the survival is inactive: 118%.
As to `CCCCC(Sc1nc2cc3c(cc2c(=O)n1CCCC(=O)NCc1ccc(OC)cc1)OCO3)C(=O)OCC` (stereo not given), the survival was inactive: 112%.
Consider `CC(C)OCCCNC(=O)c1cc2c(-c3ccc(Cl)cc3)nn(C)c2s1`, for which the survival is inactive: 128%.
Next, `COc1ccc2c(C)c(CC(=O)NCc3ccc(C)cc3)c(=O)oc2c1OC`: inactive: 117%.
Then `CCc1ccc(NC(=O)C(=O)NCCc2csc(-c3ccc(C(F)(F)F)cc3)n2)cc1`, with inactive: 124%; and `CC1=C(C#N)C(c2cccc(O)c2)C2=C(CC(c3ccccc3)CC2=O)N1` (stereo not given), with inactive: 113%; and `Cc1cc(C)c(NC(=O)Cn2c(=O)n(Cc3ccc4c(c3)OCO4)c(=O)c3ccc(C(=O)NC4CCCCC4)cc32)c(C)c1`, with inactive: 81%.
For the molecule `Cc1ccc(NCc2nnc(SCC(=O)O)n2-c2cccc(Cl)c2)cc1`, the survival was inactive: 109%.
Next, `O=C(NCc1ccccc1F)c1ccc(CN2CC(=O)N3CCCCC3C2=O)cc1` (stereo not given): inactive: 80%.
On to `N#C/C(=C\c1ccc(Cl)cc1)c1nc(-c2cc3ccccc3oc2=O)cs1`, for which the survival is inactive: 76%.
Next, `COc1cccc(C(=O)N2c3cc(C)ccc3C(C)(c3ccccc3)CC2(C)C)c1` (stereo not given): active: 1%; `O=C(CN(CC1CCCO1)S(=O)(=O)c1ccc(S(=O)(=O)N2CCOCC2)cc1)Nc1ccccc1` (stereo not given): inactive: 99%; `CCOC(=O)c1c(-c2ccccc2)oc2cc(CN(C)C)c(O)c(CN(C)C)c12`: inactive: 109%.
Next, `CCc1ccc(CNC(=O)c2cnc3sc4cc(OC)ccc4n3c2=O)cc1`: inactive: 83%; `CCCn1c2ccccc2c2cnn(CC(=O)N3CCC(C)CC3)c(=O)c21`: inactive: 67%.
Consider `CCOC(=O)c1sc2cccc(F)c2c1S(=O)(=O)N1CCN(c2cccc(Cl)c2)CC1`, for which the survival is inactive: 99%.
For the molecule `CCC1/C(=N\O)CC(c2ccco2)NC1c1ccco1` (stereo not given), the survival was inactive: 121%.
Then `COc1ccc(Nc2ncc3c(n2)CCN(Cc2cc(Br)cs2)C3)c(OC)c1`, with inactive: 70%; and `CN1CCN(C(=O)/C(=C/c2ccc(N(C)C)cc2)NC(=O)c2ccccc2)CC1`, with inactive: 97%; and `CCCCOc1ccccc1C(=O)N(Cc1ccc(C)o1)C1CCS(=O)(=O)C1` (stereo not given), with inactive: 93%.
Next, `Cc1ccc(NC(=O)CSc2nc3c(oc4ccccc43)c(=O)n2-c2ccc(F)cc2)c(C)c1`: inactive: 88%; `O=C(O)CSc1c2c(nc3cc(C(=O)Nc4ccc(F)c(Cl)c4)ccc13)CCC2`: inactive: 77%.
For the molecule `COc1ccccc1NC(=O)c1cc2c(=O)oc3ccc(C)cc3c2s1`, the survival was inactive: 84%.
Turning to `CCOC(=O)c1ccc(N2CCN(c3cc(C)ccc3C)CC2)c(NC(=O)Nc2ccccc2)c1`, the survival is inactive: 55%.
Next, `Cc1cccn2c(=O)c3cc(C#N)c(=O)n(-c4nnc(SCc5ccccc5F)s4)c3nc12`: inactive: 87%; `COCCCNC(=O)CCCCn1c(=O)c2ccccc2n(CC(=O)Nc2ccc(C)cc2C)c1=O`: inactive: 82%.
Then `Cn1nc(-c2ccc(C(=O)Nc3ccc(F)cc3)cc2)c2ccccc2c1=O`, with inactive: 80%.
For the molecule `C=Cc1ccc(Cn2nc(-c3ccc(C)c(S(=O)(=O)N(CC)CC)c3)ccc2=O)cc1`, the survival is inactive: 57%.
For the molecule `COc1ccc2cc(-c3nc4ccc(C(=O)O)cc4[nH]3)c(=O)oc2c1`, the survival was inactive: 65%.
Then `Cc1cccc(-c2nnc(N(C(=O)C3CCC3)C(C)C)s2)c1`, with inactive: 111%.
On to `CCOc1ccccc1NC(=O)Cn1nnc2sc(-c3ccccc3)cc2c1=O`, for which the survival was inactive: 83%.
`CC(C)c1ccc(S(=O)(=O)NCc2ccc3c(c2)CCN3C(=O)c2ccccc2)cc1`: the survival is inactive: 72%.
Next, `COCCNC(=O)CSc1nc2cc3c(cc2c(=O)n1CCCCCC(=O)NCc1ccc(OC)cc1)OCO3`: inactive: 63%.
Turning to `COc1ccc(CNC(=O)c2ccc3c(c2)nc2n3CCC(C)C2)c(OC)c1` (stereo not given), the survival was inactive: 71%.
Then `CCOc1ccccc1NC(=O)c1c(NC(=O)c2cccc(C)c2)sc2c1CCCC2`, with inactive: 77%.
With `CCc1ccccc1NC(=O)Nc1cc(C(=O)NCc2ccc(C)cc2)ccc1N1CCCC1`, the survival was inactive: 132%.
For `COc1ccc(Br)cc1C(=O)Nc1nc2ccc(F)cc2s1`, the survival was inactive: 77%.
In the case of `CC(C(=O)NCc1ccccc1F)n1ccc2cc(S(=O)(=O)N3CCCC3)ccc21` (stereo not given), the survival is inactive: 47%.
Then `CC1CN(C(=O)Nc2ccc(C(=O)NCc3cccc(F)c3)cc2)c2ccccc2S1` (stereo not given), with inactive: 72%; and `Cc1sc(N)nc1-c1cccs1`, with inactive: 118%.
Then `O=C(Nc1ccc(C(F)(F)F)cc1)C1CCCN(c2cnccn2)C1` (stereo not given), with inactive: 76%; and `O=c1c(S(=O)(=O)c2ccccc2)cn(Cc2ccccc2)c2cc(N3CCOCC3)c(F)cc12`, with inactive: 94%.
Then `COc1cc(C(=O)Nc2ccc3oc(-c4ccc(C)c(Br)c4)nc3c2)cc(OC)c1OC`, with inactive: 129%; and `COc1ccc(N2CCN(c3oc(/C=C/c4cc(OC)c(OC)c(OC)c4)nc3C#N)CC2)cc1`, with inactive: 79%.
Take `Cc1cc(C)cc(Oc2nc3c(c(=O)n(C)c(=O)n3C)n2Cc2ccc(F)cc2)c1`: the survival is inactive: 76%.
Then `CCOC(=O)c1ccccc1NC(=O)N(C)CCc1c(C)nn(CC)c1C`, with inactive: 77%.
Then `COc1ccc(F)cc1S(=O)(=O)NCCc1sc2nc(-c3ccc(F)cc3)nn2c1C`, with inactive: 57%.
Then `CCc1nnc(SCC(=O)Nc2ccc(F)cc2F)c2cc3sc(C)cc3n12`, with inactive: 112%; and `Cc1cc(OCC(=O)N(Cc2sccc2C)C2CCS(=O)(=O)C2)ccc1Cl` (stereo not given), with inactive: 82%.
`COc1ccc(Nc2cc(C(=O)NCc3ccccc3OC)c3ccccc3n2)cc1`: the survival was active: -6%.
Next, `Cc1cc(C)c2c(CC(=O)Nc3c(C(=O)Nc4ccc(Cl)cc4)oc4ccccc34)coc2c1`: inactive: 85%.
Then `COc1ccc(CNC(=O)CN2C(=O)c3cccnc3Oc3ccc(C)cc32)cc1`, with inactive: 120%; and `CCc1cccc(C)c1NC(=O)CSc1nnc(CC)n2c1cc1occc12`, with inactive: 75%; and `CCSc1ncc(Cl)c(C(=O)Nc2ccc(S(=O)(=O)N(C)c3ccccc3)cc2)n1`, with inactive: 84%.
Next, `CCCSCCCNC(=O)c1ccc2nc(Cc3ccccc3)oc2c1`: inactive: 73%.
